Laboratory results published in the supplement of paper PMC5499739.
In all, about 16,000 sequences were measured (“Z-score”: median about -0.37, highest 2% from about 3.1 on). This is one part of the list.

These sequences were tested on RBM10 RRM1-ZnF-RRM2 (GST-tagged construct) (assay: RNAcompete 7-mer binding Z-score; higher = stronger binding preference).
In short: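 Each heptamer motif was given a one-sided Z-score for enrichment across the probes that contained it. GST-tagged RBM10 constructs (20 pmol) were combined with 1.5 nmol of a designed pool of 241 399 RNAs of up to 41 nt, transcribed from microarray-derived DNA templates. Binding took place in 1 ml Hepes pH 7.8 buffer containing KCl, NaCl, glycerol, DTT, BSA and glutathione Sepharose beads for 30 min at 4°C. After four 2-min washes at 4°C, bound RNA was identified by microarray hybridisation.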

Sequence	RNAcompete 7-mer binding Z-score
GGCGGAA	2.01
UCUGACC	-0.806
GCUUAAC	-0.511
CUCGCGA	-0.861
ACUAUAU	-0.544
ACUAGCU	-0.755
AACCUGC	-0.897
GUAAGAA	0.548
UGGCGUC	0.148
AGCUCGC	-0.519
GUGCGUC	-0.00877
GCUAUAA	-0.42
CGCGGGA	1.16
UCUAUGG	-0.402
AUCUUAC	-0.748
ACACCCA	-0.675
CGAGACG	0.301
AGUCUAU	-0.398
AGGUUGA	1.3
UGCCAAU	-0.453
CGAUUCA	-0.617
UCGUGAU	-0.49
AAGCAGU	0.0677
CGGCCGA	-0.562

Sequence	RNAcompete 7-mer binding Z-score
AAAACAG	0.243
CAAUGCG	0.381
ACUUGAA	-0.653
ACAGUGU	0.119
CGCAGCA	-0.195
CCACUUA	-0.985
CCCUGAA	-0.628
ACGUACU	-0.69
GGCGAUC	0.654
ACGGGCC	0.297
AGUGGAA	3.21
CCAACUC	-0.927
AGUUGAA	0.578
UCCUUCC	-0.657
UUGAUCC	-0.715
CCAUCGU	-0.686
UCGCUUC	-0.741
GCGAAUU	-0.111
UCAGCAG	-0.158
CCCCUAU	-0.85
ACUCUAA	-0.686
ACGAAGC	0.0786
AAGAAGA	1.03
GAAGAAC	0.133

Sequence	RNAcompete 7-mer binding Z-score
AGAGGUU	0.865
CCCGUAC	-0.679
CGAAAUG	0.0641
UCAGUUC	-0.748
UGCAUUG	-0.46
UUCGGUG	0.0386
GUCUAUA	-0.479
CGAUGUC	-0.704
GUGAGAG	1.85
UGGUAUA	0.858
UCAAUGG	1.28
CACUAUU	-0.872
AAUGUCG	-0.173
CUCCUUC	-0.846
AGACUCA	-0.978
UCUGCGC	-0.821
UGGCACU	0.075
AUCACUA	-0.639
CUAUUGC	-0.828
GAAGAGU	1.26
UACAAAU	-0.49
GUCUUAA	-0.599
CAGUGUG	0.57
UCAGGUC	0.0604

Sequence	RNAcompete 7-mer binding Z-score
CAAACAG	0.00944
CACCUAA	-0.828
AUACACU	-0.391
GCAGAAG	1.47
UUUAAGA	-0.413
GGUUAGU	1.6
AUUCUCG	-0.686
ACUGCGU	-0.508
AUAUGCU	-0.657
GUCACAU	-0.457
AUAGUCA	-0.333
CCUUUCC	-0.887
GGGGAGC	2.12
ACAGAGC	0.188
CCAAAAG	-0.275
UAGACCA	-0.409
UAGCAAG	0.217
GAUCCCG	-0.726
UGCUUUG	-0.697
UCCUGAA	-0.766
UGAUUCG	-0.475
AUUUACC	-0.901
AUAGUAG	0.687
UCUUAUA	-0.821

Sequence	RNAcompete 7-mer binding Z-score
UCCCCAC	-0.617
AGCGGCC	-0.304
CUCCACU	-0.894
AUCCUUG	-0.821
GAAAAUA	-0.00877
GACAUCU	-0.737
GUUGUCU	-0.708
UGCGCGG	0.545
AGAAGGC	1.17
UCCGGAC	-0.602
GAGAAAG	1.62
CGAGAAU	0.17
ACUAUUC	-0.905
AUCUAGG	0.199
GGCCCUG	-0.497
UGCUUAC	-0.679
GACAUUA	-0.329
AGAGUGU	0.465
CGACACG	0.024
GUCCCAU	-0.522
GGAGGCC	1.01
UAAAUUG	-0.337
ACCCCCU	-0.755
AUGUUUC	-0.493

Sequence	RNAcompete 7-mer binding Z-score
GCGUACU	-0.322
CCCCCAC	-0.282
AGUACUU	-0.624
CGGCGGU	0.931
ACAGGCC	0.159
CUUACUC	-0.81
GCGAAGG	2.16
CCACCCG	-0.584
CCCAGAU	-0.77
GCACUAG	-0.0161
GGGGUUU	2.36
AGCAGAC	0.13
AGUUAAU	-0.18
GUCUGGA	-0.147
AACCACU	-0.661
UAAGUUC	-0.475
CAGCGUG	0.581
UCCGCAA	-0.755
AGUGGUA	1.92
CCGUGCA	-0.493
GAGGGUG	3.5
UUGAGUG	0.603
GGCAGUC	0.181
CCAGAAA	-0.694

Sequence	RNAcompete 7-mer binding Z-score
CGCUAUC	-0.77
AGUUCCG	-0.519
CUCCACA	-0.613
GUGAAAC	0.217
CCCAUAC	-0.755
UGGAAGA	2.18
UAGGGCG	2.77
UAGUAGC	-0.0998
AGAUACC	-0.836
GUGUGCC	-0.0197
GGACGGU	2.15
CAUCCAA	-0.639
UUCCUAU	-0.908
UGAUCCU	-0.799
UGUUAAA	-0.544
GGUUAGG	4.22
UAUUUUG	-0.734
GCCGGAA	0.439
GAAGCUU	-0.475
AGAACGA	-0.0561
UAGGCAG	1.68
AUUCGGG	0.956
CCUGGAA	-0.479
CCCCGGA	-0.446

Sequence	RNAcompete 7-mer binding Z-score
GUGGAAG	3.47
CAAGCAG	0.173
CCAACCC	-0.817
GAGCCCG	-0.715
UUUUCGC	-0.941
CCUAGGU	-0.0707
ACUGAGA	-0.0525
CGCGACA	-0.409
GCAUGCG	0.024
ACUCUUC	-0.912
UAUCCCU	-0.817
AUCUGGC	-0.599
AUAUUCU	-0.635
UUAAAAG	-0.184
GGAUACG	1.98
AAAUGUU	-0.409
UAACCAG	0.0532
GUCAGAU	-0.078
CCGUCCG	-0.723
CCCGAAC	-0.73
GCAUACA	-0.198
AUCUCCC	-0.897
UGGCAUG	0.793
UUGGCAC	-0.184

Sequence	RNAcompete 7-mer binding Z-score
GUUGUUA	-0.216
UCUGCGG	-0.253
AGCCGGA	0.108
UAUCCAG	-0.282
AACGCGC	-0.307
AAGCGAG	1.56
UCCCGAC	-0.77
CCCGUUC	-0.839
AGUUUGA	-0.337
GCUAUCC	-0.788
GGUGUCA	1.07
GCAGUCA	-0.213
UCAUGCC	-0.879
CGAGAUG	0.53
UACGAGG	1.03
CCGCCUG	-0.876
ACUUUGA	-0.865
AUGCAGC	0.104
CGAUUGG	0.825
AUCCAAA	-0.602
CGCCCAA	-0.927
ACCUAGA	-0.559
GGUAUCU	-0.216
CGCGUUG	-0.326

Sequence	RNAcompete 7-mer binding Z-score
CGGCCUG	-0.344
AAGUCCU	-0.686
AGCUGUG	0.155
GCAAUGC	0.0677
AGGUAGG	3.72
ACUCCUC	-0.814
AUGGAGC	1.3
CAUAAGG	0.548
AGAUCCA	-0.697
UUUGAUC	-0.719
UCGUGAG	0.144
ACUGUAA	-0.398
AGCCGAG	-0.278
AACAGUG	0.654
AGUGAUU	0.166
UAUAAAA	-0.435
AUAGAGA	0.501
CAAGGCA	1.01
